Experimental data as given in the supplement of paper PMC8728848.
This is one part of the list.

Experiments:
Assay in all cases: glycan array binding signal (z-score within array); higher = stronger binding
Conditions in all cases: glycan notation: IUPAC condensed, linker removed
[1] = molecular target: Fuc(a1-2)[GalNAc(a1-3)]Gal(b1-3)GlcNAc(b1-6)GalNAc
How it was run: (§1)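 Columns mapping to the same glycan were averaged after glycan names were converted to IUPAC-condensed notation. The data come from 3228 arrays in the Consortium for Functional Glycomics database, limited to those with an available protein sequence. Binding is reported as a within-array Z-score averaged across arrays of one protein sequence and across linkers.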

[2] = molecular target: Fuc(a1-2)[GalNAc(a1-3)]Gal(b1-4)Glc
How it was run: as §1

[3] = molecular target: Fuc(a1-2)[GalNAc(a1-3)]Gal(b1-4)GlcNAc
How it was run: as §1

[4] = molecular target: Fuc(a1-2)[GalNAc(a1-3)]Gal(b1-4)GlcNAc(b1-2)Man
How it was run: as §1

[5] = molecular target: Fuc(a1-2)[GalNAc(a1-3)]Gal(b1-4)GlcNAc(b1-2)Man(a1-3)[Fuc(a1-2)[GalNAc(a1-3)]Gal(b1-4)GlcNAc(b1-2)Man(a1-6)]Man(b1-4)GlcNAc(b1-4)GlcNAc
How it was run: as §1

[6] = molecular target: Fuc(a1-2)[GalNAc(a1-3)]Gal(b1-4)GlcNAc(b1-2)Man(a1-3)[Fuc(a1-2)[GalNAc(a1-3)]Gal(b1-4)GlcNAc(b1-2)Man(a1-6)]Man(b1-4)GlcNAc(b1-4)[Fuc(a1-6)]GlcNAc
How it was run: as §1

[7] = molecular target: Fuc(a1-2)[GalNAc(a1-3)]Gal(b1-4)GlcNAc(b1-3)Gal(b1-4)GlcNAc
How it was run: as §1

[8] = molecular target: Fuc(a1-2)[GalNAc(a1-3)]Gal(b1-4)GlcNAc(b1-3)Gal(b1-4)GlcNAc(b1-3)Gal(b1-4)GlcNAc
How it was run: as §1

[9] = molecular target: Fuc(a1-2)[GalNAc(a1-3)]Gal(b1-4)GlcNAc(b1-3)GalNAc
How it was run: as §1

[10] = molecular target: Fuc(a1-2)[GalNAc(a1-3)]Gal(b1-4)GlcNAc(b1-3)[Fuc(a1-2)[GalNAc(a1-3)]Gal(b1-4)GlcNAc(b1-6)]GalNAc
How it was run: as §1

[11] = molecular target: Fuc(a1-2)[GalNAc(a1-3)]Gal(b1-4)GlcNAc(b1-6)GalNAc
How it was run: as §1

[12] = molecular target: Fuc(a1-2)[GalNAc(a1-3)]Gal(b1-4)[Fuc(a1-3)]GlcNAc
How it was run: as §1

[13] = molecular target: Fuc(a1-2)[GalNAc(a1-3)]Gal(b1-4)[Fuc(a1-3)]GlcNAc(b1-3)GalNAc
How it was run: as §1

[14] = molecular target: Fuc(a1-2)[GalNAc(a1-4)]Gal(b1-4)GlcNAc
How it was run: as §1

[15] = molecular target: Fuc(a1-2)[GalNAc(b1-3)]Gal
How it was run: as §1

[16] = molecular target: Fuc(a1-3)GlcNAc
How it was run: as §1

[17] = molecular target: Fuc(a1-3)[Gal(b1-4)]Glc6S
How it was run: as §1

[18] = molecular target: Fuc(a1-3)[Gal(b1-4)]GlcNAc
How it was run: as §1

[19] = molecular target: Fuc(a1-3)[Gal(b1-4)]GlcNAc(b1-2)Man
How it was run: as §1

[20] = molecular target: Fuc(a1-3)[Gal(b1-4)]GlcNAc(b1-2)Man(a1-3)[Fuc(a1-3)[Gal(b1-4)]GlcNAc(b1-2)Man(a1-6)]Man(b1-4)GlcNAc(b1-4)GlcNAc
How it was run: as §1

[21] = molecular target: Fuc(a1-3)[Gal(b1-4)]GlcNAc(b1-2)Man(a1-3)[Fuc(a1-3)[Gal(b1-4)]GlcNAc(b1-2)Man(a1-6)]Man(b1-4)GlcNAc(b1-4)[Fuc(a1-6)]GlcNAc
How it was run: as §1

[22] = molecular target: Fuc(a1-3)[Gal(b1-4)]GlcNAc(b1-3)Gal(b1-3)[Fuc(a1-4)]GlcNAc
How it was run: as §1

[23] = molecular target: Fuc(a1-3)[Gal(b1-4)]GlcNAc(b1-3)Gal(b1-4)[Fuc(a1-3)]GlcNAc
How it was run: as §1

[24] = molecular target: Fuc(a1-3)[Gal(b1-4)]GlcNAc(b1-3)Gal(b1-4)[Fuc(a1-3)]GlcNAc(b1-3)Gal(b1-4)[Fuc(a1-3)]GlcNAc
How it was run: as §1

[25] = molecular target: Fuc(a1-3)[Gal(b1-4)]GlcNAc(b1-3)GalNAc
How it was run: as §1

[26] = molecular target: Fuc(a1-3)[Gal(b1-4)]GlcNAc(b1-6)GalNAc
How it was run: as §1

[27] = molecular target: Fuc(a1-3)[Gal(b1-4)]GlcNAc(b1-6)[Gal(b1-3)GlcNAc(b1-3)]Gal(b1-4)Glc
How it was run: as §1

[28] = molecular target: Fuc(a1-3)[Gal(b1-4)]GlcNAc6S
How it was run: as §1

[29] = molecular target: Fuc(a1-3)[Gal3S(b1-4)]Glc
How it was run: as §1

[30] = molecular target: Fuc(a1-3)[Gal3S(b1-4)]GlcNAc
How it was run: as §1

[31] = molecular target: Fuc(a1-3)[Gal3S(b1-4)]GlcNAc6S
How it was run: as §1

[32] = molecular target: Fuc(a1-3)[GalNAc(b1-4)]GlcNAc
How it was run: as §1

[33] = molecular target: Fuc(a1-3)[GalNAc(b1-4)]GlcNAc6S
How it was run: as §1

[34] = molecular target: Fuc(a1-4)GlcNAc
How it was run: as §1

[35] = molecular target: Fuc(b1-3)GlcNAc
How it was run: as §1

[36] = molecular target: Gal(a1-2)Gal
How it was run: as §1

[37] = molecular target: Gal(a1-3)Gal
How it was run: as §1

[38] = molecular target: Gal(a1-3)Gal(b1-3)GlcNAc
How it was run: as §1

[39] = molecular target: Gal(a1-3)Gal(b1-3)GlcNAc(b1-2)Man
How it was run: as §1

[40] = molecular target: Gal(a1-3)Gal(b1-3)GlcNAc(b1-2)Man(a1-3)[Gal(a1-3)Gal(b1-3)GlcNAc(b1-2)Man(a1-6)]Man(b1-4)GlcNAc(b1-4)GlcNAc
How it was run: as §1

[41] = molecular target: Gal(a1-3)Gal(b1-3)GlcNAc(b1-3)GalNAc
How it was run: as §1

[42] = molecular target: Gal(a1-3)Gal(b1-3)GlcNAc(b1-6)GalNAc
How it was run: as §1

[43] = molecular target: Gal(a1-3)Gal(b1-3)[Fuc(a1-4)]GlcNAc(b1-2)Man(a1-3)[Gal(a1-3)Gal(b1-3)[Fuc(a1-4)]GlcNAc(b1-2)Man(a1-6)]Man(b1-4)GlcNAc(b1-4)GlcNAc
How it was run: as §1

[44] = molecular target: Gal(a1-3)Gal(b1-4)Glc
How it was run: as §1

[45] = molecular target: Gal(a1-3)Gal(b1-4)GlcNAc
How it was run: as §1

B1: PX9961V-pdi-562-26-562 (Parabacteroides distasonis) (protein)
chain: EIFSEITTDNYYQNSNNIYAALVNNYAKAFSTGWSDARYFLQEVTADQLMIPTRGKHGYNGGEYVRLHEHKWTVEENFVYNGWAAPFQGIALCNNTLSDFENLDFSTFKLTEETKNEYIAELRALRVWNYMFLIDFFRHVPIVTDIEEVKAQSTPLEVFNFMESELLAILPDLPKNRGVSRFDQAGVASILVRLYLNAEKWIGISKYDECEQMAQAILDGKYGEYSIDPDYRGPFRSGINGYRSKENIMEFAIKKNYFEASWLYNMWMHYQDRYSLDNDWQGWNGGNLAPSRDLYGNLYQDKLGMPFEKFPDGDIRKKAFRVISNDGDYEGFFLMGTQYKFDYEKGYGFTDEVITGTEEYNGKPLVYVDQVGRFSEGETGLAKGSHVIYGEENTGYRLIKFPWLPQSKDLFQMNSIPEIRLAEIYYSLAECKYRSGDKIGAARLLDVVRKRYYKAEDWSKFSYESNISKLTDDEFVDELGREFIGERHRRIDLIRWNRFSEGAWWDKTPDATNQDVFPIPYRALNANPLLKQTTAGF
[1]
  glycan array binding signal (z-score): -0.636
[2]
  glycan array binding signal (z-score): -0.242
[3]
  glycan array binding signal (z-score): -0.528
[4]
  glycan array binding signal (z-score): -0.6
[5]
  glycan array binding signal (z-score): 4.28
[6]
  glycan array binding signal (z-score): -0.164
[7]
  glycan array binding signal (z-score): -0.014
[8]
  glycan array binding signal (z-score): -0.139
[9]
  glycan array binding signal (z-score): -0.613
[10]
  glycan array binding signal (z-score): -0.405
[11]
  glycan array binding signal (z-score): -0.592
[12]
  glycan array binding signal (z-score): -0.369
[13]
  glycan array binding signal (z-score): 7.22
[14]
  glycan array binding signal (z-score): 2.97
[15]
  glycan array binding signal (z-score): -0.308
[16]
  glycan array binding signal (z-score): -0.508
[17]
  glycan array binding signal (z-score): 0.472
[18]
  glycan array binding signal (z-score): -0.465
[19]
  glycan array binding signal (z-score): -0.333
[20]
  glycan array binding signal (z-score): 0.569
[21]
  glycan array binding signal (z-score): 1.49
[22]
  glycan array binding signal (z-score): -0.435
[23]
  glycan array binding signal (z-score): 0.082
[24]
  glycan array binding signal (z-score): -0.325
[25]
  glycan array binding signal (z-score): 0.334
[26]
  glycan array binding signal (z-score): -0.657
[27]
  glycan array binding signal (z-score): -0.227
[28]
  glycan array binding signal (z-score): 0.861
[29]
  glycan array binding signal (z-score): -0.74
[30]
  glycan array binding signal (z-score): -0.427
[31]
  glycan array binding signal (z-score): -0.418
[32]
  glycan array binding signal (z-score): -0.613
[33]
  glycan array binding signal (z-score): -0.368
[34]
  glycan array binding signal (z-score): -0.596
[35]
  glycan array binding signal (z-score): -0.328
[36]
  glycan array binding signal (z-score): -0.474
[37]
  glycan array binding signal (z-score): 0
[38]
  glycan array binding signal (z-score): 0.646
[39]
  glycan array binding signal (z-score): -0.526
[40]
  glycan array binding signal (z-score): 2.03
[41]
  glycan array binding signal (z-score): -0.36
[42]
  glycan array binding signal (z-score): 0.883
[43]
  glycan array binding signal (z-score): 3.94
[44]
  glycan array binding signal (z-score): -0.017
[45]
  glycan array binding signal (z-score): 0.068
